Source: PubChem BioAssay AID504466 (National Center for Advancing Translational Sciences (NCATS), 2011)
Among all 330,000 compounds or so, about 4,200 (1.3%) were called active. This list was built around the results that the source calls inconclusive (neither active nor inactive); the mix of calls is not that of the screen. Calls follow the shape of the dose curve; as a rule, active = well fitted activation curve with a large enough effect; inconclusive = small, poorly fitted or top-dose-only effect; inactive = no such curve, though single readings can be large or run the other way. Potencies beside an inconclusive call are fits to weak or partial responses and may not hold up.

Assay: qHTS screen for small molecules that induce genotoxicity in human embryonic kidney (HEK293T) cells expressing luciferase-tagged ELG1; also: nearly all actives have a fitted effect of over 60% in size; as to activity change, positive = activation: % of control where 0% means no effect
Conditions: HEK293T ELG1-luciferase reporter, luminescence, 16 h; series mostly up to 46 µM; activity change, positive = activation: at the top concentration
Procedure, shortened: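 Genotoxicity was scored as increased ELG1-luciferase reporter signal, measured by ONE-Glo luminescence (30 min, room temperature). Compound or vehicle exposure of the HEK293T reporter cells lasted 16 hr at 37°C.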
Potency is read from the fitted curve at half-maximal effect; tags tell the direction and shape of the fitted curve.

| SMILES | Potency | activity change, positive = activation |
| --- | --- | --- |
| Cc1cccc(N/N=C/c2ccncc2)c1 | inconclusive: 18.3 µM [activator, single point] |  |
| Cc1ccc(NC(=O)CN2CCN(C(=O)c3ccco3)CC2)cc1 |  | inactive: -0.0393% |
| Cc1cc2cc(CN(Cc3ccco3)C(=O)NCc3ccccc3)c(=O)[nH]c2cc1C |  | inactive: -7.08% |
| CCc1nnc(NC(=O)c2ccc(COc3ccccc3)o2)s1 |  | inactive: 16% |
| O=C(c1cccc(Cl)c1)N1CCN(c2ccccn2)CC1 |  | inactive: 1.42% |
| O=C(NCCc1ccccc1)C1=COCCO1 | inconclusive: 20.6 µM [activator, partial curve] |  |
| CC(C)CCSc1nc2ccccc2[nH]1 | inconclusive: 4.11 µM [activator, full curve] |  |
| Cc1ccc(C(=O)OCC(=O)N2CCNC2=O)c(C)c1 | inconclusive: 23.1 µM [activator, single point] |  |
| CCCC(=O)OC1CC(C)N(C(=O)c2ccccc2)c2ccc(C)cc21 (stereo unspecified) |  | inactive: 3.07% |
| COc1ccc2nc(NC(=O)CSCC(=O)Nc3cc(C)on3)sc2c1 | inconclusive: 23.1 µM [activator, partial curve, poor fit] |  |
| N#CC1=C2SCC(O)(c3ccccc3)N2C(=O)CC1c1ccccc1F (stereo unspecified) | inconclusive: 16.4 µM [activator, partial curve] |  |
| O=c1oc2ccccc2cc1-c1cn(-c2ccccc2)c(=S)[nH]1 | active: 0.0461 µM |  |
| Cc1cc2oc(=O)cc(CN3CCC(C)CC3)c2c(C)c1Cl | inconclusive: 18.4 µM [activator, partial curve, poor fit] |  |
| COc1ccc(N=C(C)C2=C(O)c3ccccc3C2=O)cc1 | active: 2.59 µM |  |
| Cc1ccc(-c2noc(CCC(=O)NC3CC3)n2)cc1 | inconclusive: 20.6 µM [activator, partial curve, poor fit] |  |
| Oc1ccc(-c2cn3ccccc3n2)cc1O | active: 13 µM |  |
| NC1=NC(=O)/C(=C/c2cn(Cc3ccccc3)c3ccccc23)S1 | inconclusive: 9.2 µM [activator, partial curve] |  |
| Cc1ccc(NC(=O)CN2C(=O)/C(=C\c3cccs3)SC2=S)cc1 | inconclusive: 29.1 µM [activator, partial curve, poor fit] |  |
| Cc1cccnc1NC(=S)Nc1ncccc1C | inconclusive: 5.17 µM [activator, partial curve] |  |
| COc1ccc2nc(NCc3ccccc3)[nH]c2c1 | inconclusive: 12.6 µM [activator, partial curve, poor fit] |  |
| CCOc1c(C)cc(-c2ncccc2O)cc1C | inconclusive: 29.1 µM [activator, single point] |  |
| Cc1c(C(c2ccccc2)c2c(C)n(C)n(-c3ccccc3)c2=O)c(=O)n(-c2ccccc2)n1C |  | inactive: -1.4% |
| CCOC(=O)C1CCN(C(=O)CSc2ccccc2)CC1 | inconclusive: 16.4 µM [activator, single point] |  |
| O=C(CCNC(=O)c1ccccc1)NCCCc1ccccc1 |  | inactive: 0.527% |
| Cc1ccc(-c2nnc(SCC#CCOC(=O)c3ccco3)o2)cc1 | inconclusive: 23.1 µM [activator, single point] |  |
| CCc1cc(C(=O)N2CCN(S(=O)(=O)c3ccc(Cl)cc3)CC2)sc1C |  | inactive: -5.9% |

| SMILES | Potency | activity change, positive = activation |
| --- | --- | --- |
| COc1ccc(C(=O)N2C(=O)c3ccc(N)cc3C2=O)cc1 | inconclusive: 23.1 µM [activator, single point] |  |
| COc1ccc(OCc2nc(N)nc(Nc3ccccc3)n2)cc1 | inconclusive: 20.6 µM [activator, single point] |  |
| Cc1cccc(N=Nc2c(C)nn(-c3ccccc3)c2N)c1C | inconclusive: 14.6 µM [activator, single point] |  |
| Cc1nc(-c2cc(-c3ccc(Cl)cc3)no2)cs1 | inconclusive: 2.59 µM [activator, full curve, poor fit] |  |
| O=C(CCCN1C(=O)CCC1=O)Nc1ccc2c(c1)OCO2 |  | inactive: 2.68% |
| CCn1c(SCCOc2ccc(Cl)cc2)nnc1-c1cccs1 |  | inactive: -13.1% |
| CC(=O)c1sc(N/N=C\c2ccc(C)cc2)nc1C | active: 18.4 µM |  |
| CN(C)c1ccc(/C=N/NC(=O)c2ccccn2)cc1 | active: 1.16 µM |  |
| COc1ccccc1C(=O)Nc1nnc(-c2ccco2)s1 | active: 1.64 µM |  |
| O=[N+]([O-])c1ccccc1NCCOc1ccccc1 | inconclusive: 14.6 µM [activator, partial curve] |  |
| Cc1ccc(C(=O)NN=CC(=O)c2ccccc2)c(C)c1 | active: 2.31 µM |  |
| Cn1c(COc2ccccc2)nnc1SCC(=O)NNC(=O)C1CCCCC1 |  | inactive: 1.62% |
| N/C(=N\OC(=O)c1ccc2ccccc2c1)c1ccccn1 | active: 0.58 µM |  |
| CCN1CCN(c2cc3c(nn2)Oc2ccccc2N3C)CC1 | inconclusive: 20.6 µM [activator, single point] |  |
| O=C(OCc1nnc(-c2ccc(Cl)cc2)o1)C12CC3CC(CC(O)(C3)C1)C2 | inconclusive: 13 µM [activator, partial curve] |  |
| CCN1C(=O)/C(=C/C=C2/SCCN2C)SC1=S | inconclusive: 2.91 µM [activator, partial curve, poor fit] |  |
| CCN1CCN(S(=O)(=O)c2c[nH]c(C(=O)OC)c2)CC1 |  | inactive: 5.4% |
| Cc1cc(C(=O)Nc2ccc(S(=O)(=O)Nc3onc(C)c3C)cc2)c(C)o1 |  | inactive: 1.38% |
| Cc1ccccc1C(=O)Nc1cccc(-c2ccc(N3CCOCC3)nn2)c1 | inconclusive: 5.17 µM [activator, partial curve] |  |
| COc1ccc(/C=C(/NC(=O)c2ccccc2)c2nc3ccccc3[nH]2)cc1OC |  | inactive: -4.41% |
| O=c1oc2c(O)cccc2cc1-c1nc2ccccc2[nH]1 | inconclusive: 1.83 µM [activator, full curve] |  |
| OCCNCC(O)CN1c2ccccc2Sc2ccccc21 (stereo unspecified) |  | inactive: -4.25% |
| O=C1c2ccccc2-c2nnc(-c3ccc(F)cc3)cc21 | inconclusive: 0.651 µM [activator, full curve, poor fit] |  |
| CC(C)(C)C(=O)N/C(N)=N/c1nc2ccccc2o1 | inconclusive: 1.83 µM [activator, partial curve] |  |
| Cc1cc(Cl)ccc1OCc1cn2cccnc2n1 | inconclusive: 20.6 µM [activator, partial curve] |  |
